Data as given in the supplement of paper PMC10126150.
Values marked as one replicate rest on one cluster of the flow cell; about a third of the high ones do not repeat.

The sequences below were run on ATP (assay: switch fluorescence ratio, 500 uM ATP over buffer (Cy3 cluster intensity, sum of 5 cycles each) (fold (ratio)); higher = stronger signal-on switching upon ATP binding; sequences stand for … in TCGTCGGCAGCGTCAGATGTGTATAAGAGACAGTTTTTTTTTTTTTTTTTTTTTTTTT…TC). Settings: aptamer strand: ATP DNA aptamer (quencher-CACCTGGGGGAGTATTGCGGAGGAAGG + anchor), 100 nM annealed; ATP concentration: 500 uM; one replicate.
How it was run: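 Values give the fluorescence ratio for each switch-domain sequence, averaged from per-cluster ratios of summed target-cycle to summed buffer-cycle Cy3 intensity. The Cy3-labelled switching-strand clusters sat on a modified Illumina MiSeq flow-cell, were annealed to 100 nM quencher-labelled ATP aptamer, and were imaged in selection buffer, then after 15 min with 500 uM ATP at 22 °C. Five cycles ran with NaOH stripping and re-annealing between them, and clusters outside 100-1000 RFU were excluded.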
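Further: ATP exposure 15 min at 22 °C before imaging.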

Sequence | switch fluorescence ratio
AGTGTCGCCA | 0.973
ATTGTGGTCG | 0.99
ACGAGGTTTG | 0.976
CTGGTCCGCG | 1.2
TCAGTTCATG | 0.994
GGTGCCTTTC | 0.938
CTGGCAACTG | 1.08
TCAGATCCAC | 0.981
CATAGACGTG | 1.01
TTAATTGCGG | 1.06
CTCGCTGGTG | 1.27
TAAAGATAA | 0.984
CTACGATATG | 1.1
AGGTCATAAA | 1.01
TTATATCCAT | 0.972
AATAGGAGGG | 0.999
TACGATAGCG | 1.04
TCAGCTTTTC | 1.01
AGTTCCGCGG | 1.03
CTGCGACGGA | 0.995
ATTTGCGTGC | 1.01
TATCAAGGTG | 1.47
TAAGGGTCAT | 0.984

Sequence | switch fluorescence ratio
CAAGCTAGA | 0.999
CACCCAAAAA | 1.04
TGCGGTCTGA | 0.993
ATACACTGTA | 1.05
AGCAGGTTTC | 0.972
GGTCTTGAGT | 0.997
GCAACTGGAC | 1.2
GTTGGCACCG | 1.02
CGGGTTCCTT | 1.05
ATAAATTCCG | 0.95
TTTACATAGA | 0.985
GTTGCCGGTA | 1.03
TTCAGGCGTC | 1.04
GCCCCTTACC | 1.12
GTCCGTCCGG | 0.954
CGGCAGGTCC | 1
TGTAGGGCTT | 0.996
ACCGAAGACA | 1.09
TGATATCAGC | 0.999
CTCTCTGGTA | 1.05
TCCCTTGACC | 1.02
GCACAGCGAC | 1.13
ACTCGCTATA | 3.3

Sequence | switch fluorescence ratio
CCGTATGGTC | 1.1
GGGGGTCTTC | 0.953
CTAACTCCGG | 1.56
CCACCGGTGG | 1.04
ACAGAACGGG | 0.984
CTCTTTCCCT | 1.01
ATAGCGGCG | 0.988
GTTATTTGT | 1.13
AGACCCATCC | 1.15
AGATCGCTGA | 1.03
CCGGGACAAC | 1.7
GGCCACGAGG | 1.03
AGTACGATAA | 1.11
GTTCACACCT | 1.12
TTCAGCGTTT | 1.04
AAAAATGCTG | 1.05
GTGCCTTTTG | 0.99
GCAACTATAC | 2.19
CATACATTTT | 0.994
CAGCGT | 1.05
CTTTTGTATC | 1.03
TTAGGCTCGT | 1.01
CAGTACAGGG | 0.97

Sequence | switch fluorescence ratio
ACACTAGTTC | 1.08
GTTCCCTGTA | 1.03
TTTAGGATTA | 0.981
GTAGCGGACG | 1.02
GGGAGTTACT | 1.02
CTACTGGAGG | 1.02
GTATGGCTAT | 1.02
GCTGGCGCTC | 1.01
TCATAGGGCC | 1.01
GATTTACTGT | 1.06
CTATAGCCCT | 0.94
CACATTATGG | 1.04
TATCTGGCCC | 0.989
TATCAGGGCA | 1.06
TTCTCTGTCG | 0.983
TGGACTGTGT | 1
AATAGCTCCG | 1.05
AGGAACTCGG | 1.08
TGCAGGATGT | 1.02
GTTGGATAGT | 0.998
CGCCTGCGCC | 1.06
CTACGTTTGA | 1.02
GTTCCCCGGA | 1.01

Sequence | switch fluorescence ratio
GACACAGTAC | 4.79
AATGGTTGGA | 1.03
AGTGGTTTCG | 0.959
GGGGCTAAGT | 0.971
ATAATTTCAT | 1.01
GGGTAGACTC | 0.973
ATTGACGTTA | 1.05
TGTCCTTTCT | 1.76
CTCTGATAGT | 0.993
TAGCGCGGA | 1.13
CACAGCGGGT | 1.08
CAGATCCGT | 0.961
CACTTAAGGG | 1.02
CATTTGCCTG | 1.04
GACTCATTAT | 0.999
TGAAAGTATC | 0.964
AGATCGAACG | 1.06
CCTGTTGTCC | 1.04
CTTGAACAAT | 1.06
TTACCTTCAT | 1.62
ATATAGGAAC | 1.01
GGTTCGTTGC | 1.02
CTCTAGACCT | 1.37

Sequence | switch fluorescence ratio
TGAGTAACCT | 1.75
AGGAACCAAT | 1.02
CTGTATTCTA | 0.977
TAGTAATCAG | 0.995
TAATTAATT | 1.02
CTTCAAAGCT | 1.08
CTGACAGCCG | 1
CCAGAAGAGG | 0.986
TCTAAGCATT | 1.1
ATCGCAGGGG | 1.14
GCCGTAGTTC | 0.964
AAGTTGTTCC | 1.02
TACTACTGAT | 1.06
CGATAGAACC | 1.01
GCCTGGTGGG | 1.04
GGGAATCAGA | 0.962
AAGTAGAAAA | 0.994
TCTACATTGG | 1.01
ACCAAGCTAA | 1.05
TGGTAATGAT | 1.02
TGGGCACCGT | 1
CAATCCGATC | 1.21
CACATTGCTT | 1.02

Sequence | switch fluorescence ratio
TTACTGGACC | 1.26
TATCATAATA | 1.03
CCCACATGGA | 1.05
ATGGAGGGAT | 0.991
AGAGGGGGTC | 0.968
ACGCTGCGGT | 1.04
GTCATTCACT | 1.16
GGCGGCATGC | 1.05
TCATTGGACG | 1.06
CTGTCTTAAT | 1.01
CGTTTGCC | 1
GGGTCGGTCA | 0.998
GGGCTAAGTA | 0.972
CACGGAAAAC | 1.12
TCGAGTCTGA | 1.01
CGCTGTATAA | 1.07
TATGAGTGCA | 1.05
ATCTTTGT | 0.977
TGATGTAATC | 0.988
